Experimental data: PubChem BioAssay AID488969 (Vanderbilt High Throughput Screening Facility, 2010)
Whole data set: some 110,000 compounds, median “z-score” near -0.1, cut for the highest 2% near 2. The list shows a part of the results. Calls of active or inactive are those of the source.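 Rule for the calls: active = z-score in the third read window above 3 or below -3; inactive = the rest.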

Each compound was assayed against Metabotropic glutamate receptor 8 (Rattus norvegicus) (UniProt P70579) (assay: rat mGluR8 modulators via GIRK flux, primary screen, cell-based, thallium flux, HTS (AID 488969)). Settings: HEK293 rat mGluR8, GIRK (G protein-gated inwardly rectifying potassium channel) thallium flux, FluoZin2; at 10 µM; stronger effect = higher value; submaximal glutamate (EC20) added with thallium.
UniProt P70579, sequence (P70579 whole entry, looked up): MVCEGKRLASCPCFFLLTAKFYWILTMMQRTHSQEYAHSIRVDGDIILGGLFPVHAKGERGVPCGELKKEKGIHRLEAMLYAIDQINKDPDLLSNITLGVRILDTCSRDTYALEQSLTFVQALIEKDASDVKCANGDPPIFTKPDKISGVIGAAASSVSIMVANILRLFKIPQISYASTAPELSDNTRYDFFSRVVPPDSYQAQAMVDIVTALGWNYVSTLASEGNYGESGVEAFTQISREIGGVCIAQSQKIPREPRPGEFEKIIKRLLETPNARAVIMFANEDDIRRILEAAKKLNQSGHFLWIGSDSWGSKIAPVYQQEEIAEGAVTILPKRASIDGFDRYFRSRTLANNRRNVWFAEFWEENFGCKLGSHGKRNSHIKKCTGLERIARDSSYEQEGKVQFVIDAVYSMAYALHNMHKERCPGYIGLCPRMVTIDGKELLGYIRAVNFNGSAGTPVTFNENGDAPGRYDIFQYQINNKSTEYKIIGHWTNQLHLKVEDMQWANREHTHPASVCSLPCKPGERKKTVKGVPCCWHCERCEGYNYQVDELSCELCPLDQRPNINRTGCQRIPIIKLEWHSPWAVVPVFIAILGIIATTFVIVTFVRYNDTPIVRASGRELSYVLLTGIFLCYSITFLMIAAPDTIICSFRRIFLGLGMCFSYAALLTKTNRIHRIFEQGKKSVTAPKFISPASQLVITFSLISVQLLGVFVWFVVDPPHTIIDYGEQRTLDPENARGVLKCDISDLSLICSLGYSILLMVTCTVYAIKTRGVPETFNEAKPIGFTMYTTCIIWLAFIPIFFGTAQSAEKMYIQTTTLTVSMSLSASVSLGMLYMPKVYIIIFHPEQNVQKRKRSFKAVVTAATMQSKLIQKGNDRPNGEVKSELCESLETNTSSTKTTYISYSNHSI

Compound | z-score
O=C(O)/C=C/c1ccccc1Oc1ccccc1 | -0.093
CNC(=O)CC(=O)Nc1ccccc1C(=O)O | -0.164
O=C(CSc1nnc(-c2ccc(F)cc2)o1)Nc1ccc(S(=O)(=O)N2CCCCCC2)cc1 | -0.717
N#C/C(=C/c1ccc([N+](=O)[O-])cc1)C(=O)Nc1ccccc1O | -0.335
Cc1ccc(-c2ccc(CCC(=O)O)o2)cc1 | -0.192
CCOc1ncccc1C(=O)N1CCN(Cc2ccc3c(c2)OCO3)CC1 | -0.175
COc1ccccc1/C=C1\SC(=S)N(Nc2nc(C)cc(C)n2)C1=O | -0.21
COc1nnc(-c2ccc(C)c(S(=O)(=O)NCCO)c2)c2ccccc12 | -0.0626
COc1ccc(C(=O)Nn2cnc3ccccc3c2=O)c(OC)c1 | -0.153
CC(=O)Nc1nc(S(=O)(=O)c2ccc(C)cc2)c(Cl)s1 | 0.259
Cn1c(CN2CCN(C(=O)c3ccccc3)CC2)nc2cc([N+](=O)[O-])ccc21 | 0.0497
CCC(=O)NC(=S)Nc1ccccc1C(=O)OC | -0.308
CC1(C)Cc2c(C#N)c(SCc3nc4ccccc4[nH]3)nc(N3CCOCC3)c2CO1 | 0.986
CC1(C)NC(=O)N(CC(O)COC2CCCCC2)C1=O (stereo unspecified) | 0.197
Cc1ccc(C(=O)N2CCCCCC2)cc1Br | -0.0137
COc1ccc(-c2ccc(C#N)c(SCC(=O)Nc3sc4c(c3C#N)CCC4)n2)cc1OC | -0.0669

Compound | z-score
COc1ccc(C(=O)N/N=C/c2ccc3cccc(OCc4ccccc4)c3n2)cc1 | active: 3.81
S=C(c1ccc(N2CCCC2)cc1)N1CCCCC1 | -0.446
COc1ccc(Cc2nnc(NC(=O)CSc3ccc(C)cc3)s2)cc1OC | 0.302
CCOc1ccc(C(O)c2nccn2Cc2ccccc2)cc1 (stereo unspecified) | 0.113
COc1ccc(C2(C(=O)Nc3nncs3)CCCC2)cc1 | -0.037
CCC(=O)N1CCc2cc(S(=O)(=O)CCC(=O)Nc3ccc(C)c(F)c3)ccc21 | -0.123
COc1ccccc1NC(=S)NCc1ccccn1 | -0.0089
COc1ccc(N2CC(C(=O)NC3CC(C)(C)NC(C)(C)C3)CC2=O)cc1 (stereo unspecified) | -0.0168
COc1cc2c(cc1OC)CN(C(=O)CSc1n[nH]c(N)n1)CC2 | -0.299
Cc1ccc(SCC(=O)Nc2ccc(N3CCN(c4ccccc4)CC3)c(F)c2)cc1 | -0.177
Cc1ccc(C(=O)NCc2ccc3c(c2)OCO3)cc1S(=O)(=O)N1CCCCC1 | -0.34
Cc1cccc(NC(=O)CN(C)S(=O)(=O)c2cccs2)c1 | -0.0381
O=C(O)CCC(=O)Nc1ccc(-c2nnc(-c3ccco3)o2)cc1 | -0.212
CN1CC(c2ccccc2)C2(COc3ccccc3C2=O)C12C(=O)Nc1ccccc12 (stereo unspecified) | -0.257
O=C(NC(c1ccc(Cl)cc1)c1c(O)ccc2ccccc12)c1ccccc1 (stereo unspecified) | -0.225
